Read counts are not given, so values of variants with three or more changes are uncertain.

19 variants from the RNAGym collection of RNA variant scans (doi:10.7554/elife.90254) can be followed below.

The chains are these.
B1: LINE1-full (parent)
chain: UACGUAGGUGGUUUUCCCCUGAUAGUGCUAAGGGGGCCUGGAAGUUUGGACUGGGCAGAGCUCAACACAGCGUGGCAAAGUGGCUGUGGCUAGACUGCCUCUCUGGAUUCCUCGUCACUCAGCAGGGCAUCUCUGAGAGAAAUGCC

In this series the parent is B1. Nature of the series: self-cleavage, relative activity (ratio to wild type); higher = more cleavage; in vitro, sequencing; the parent is a self-cleaving ribozyme.
For the variant UACGUAGGUGGUUUUCCCCUGAUAGUGCUAAGGGGGCCUGGAAGUUUGGACUGGGCAGAGCUCAACACAGCGUGGCAAAGUGGCUGUGGCUAGACUACCUCUCUGAAUUCCUCGUCACUCAGCAGGGCAUCUCUGAGAGGAAUGCC [G97A G106A A140G], the self-cleavage was 0.38. As for UACGUAGGUGGUUUCCCCCUGAUAGUGCUAAGGGGGCCUGGAAGUUUGGACUGGGCAGAGCUCAACACCGCGUGGCAAAGUGGCUGUGGCUAGACUGCCUCUCUGGAUUCCUCGUCACUCAGCGGGGCAUCUCUGAGAGAAAUGCC [U15C A69C A124G], the self-cleavage was 0.08. The same measure for UGCGUAGGUGGUUUUCCCCUGAUAGUGCUAAGGGGGCCUGGAAGUUUGGACUGGGCAGAGCUCAACGCAGCGUGGCAAAGUGGCUGUGGCUAGACUGCCUCUCUGGAUUCCUCGUCACUCAGCAGGGCAUCUCUGAGAGAAUUGCC [A2G A67G A142U]: 0.84. The figure for UACGUAGGUGGCUUUCCCCUGAUAGUGCUAAGGGGGCCUGGAAGUUCGGCCUGGGCAGAGCUCAACACAGCGUGGCAAAGUGGCUGUGGCUAGACUGCCUCUCUGGAUUCCUCGUCACUCAGCAGGGCAUCUCUGAGAGAAAUGCC [U12C U47C A50C] is 2. The figure for CACGUAGUUGGUUUUCCCCUGAUAGUGCUAAGGGGGCCUGGAAGCUUGGACUGGGCAGAGCUCAACACAGCGUGGCAAAGUGGCUGUGGCUAGACUGCCUCUCUGGAUUCCUCGUCACUCAGCAGGGCAUCUCUGAGAGAAAUGCC [U1C G8U U45C] is 1.06; for UACGUAGGUGGUUUUCCCCUGAUGGUGCUAAGGGGGCCUGGAAGUUUGGACUGGGCAGGGCUCAACACAGCGUGGCAUAGUGGCUGUGACUAGACUGCCUCUCUGGAUUCCUCGUCACUCAGCAGGGCAUCUCUGAGAGAAAUGCC [A24G A59G A78U G89A] it is 0.05; for UACGUAGGUGGUAUUCCCCUGAUAGUGCUAAGGGGGCCUGGAAGUUUGGACUGGGCUGAGCACAACACAGCGUGGCAAGGUGGCUGUGGCCAGACUGCCUCUCUGGAUUCCUCGUCACUCAGCAGGGCAUCUCUGAGAGAAAUGCC [U13A A57U U62A A79G U91C] it is 0. Regarding UACGUAGGUGGUUUUCCCCUGAUAGUGCUAAGGGGGCCUGGAAGUUUGGACUGGGCAGAGCUCAACACAGCGUGGCAAAGUGGCUGUGGCUAGACUGCCUCUAUGGAUCCCUCGUCACUCAGCAGGGCAUCCCUGAGAGAAAUGCC [C103A U109C U132C], the self-cleavage was determined as 1.47. The figure for UACGUAGGUGGUUUUCCCCUGAUAGUGCUGAUGGGGCCUGGAAGUCUGGACUGGGCAGAGCUCAACACAGCGUGGCAAAGUGGCUGUGGCUAGACUGCCUCUCUGGAUUCCUCGUCACUCAGCAGGGCAUCUCUGAGAGAAAUGCC [A30G G32U U46C] is 1.1; for UACGUAGGUGGCUUUCCCCUGAUAGUGCUAAGGGGGCCUGGAAGUUUGGACUGGGCAGAGCUCAACACAGCGUGGCUAAGUGGCUGUGGCUAGACUGCCUCUCUGGAUUCCACGUCACUCAGCAGGGCAUCUCUGAGAGAAAUGCC [U12C A77U U112A] it is 1.18; for UACGUAGGUGGUUUUCCCCUGAUAGUGCUAAGGGGGCCUGGAAGUUUGGACUGGGCAGAGCUCAACACAGCGUGCCAAAGUGGCUGUGGCUAGACUGCUUCUCUGGAUUCCUCGUCACUCAGCGGGGCAUCUCUGAGAGAAAUGCC [G75C C99U A124G] it is 0.1. The same measure for UACGUAGGUGGUUUUCCCCUGAUAGUGCUAAGGGGGCCUGGAAGUUUGGACUGGGCCGAGCUCAACACAGCGUGGCAAAGAGGCUGUGGCUAGACUGCCUCUCUGGAUUCCUCGUCACUCAGCAGGGCAUCUCUGGGAGAAAUGCC [A57C U81A A136G]: 0.07; for UACGUAGGUGGUUUUCCCCAGAUAGUGCUAAGGGGGCCUGGAAGUUCGGACUGGGCAGAGCUCAACACAGCGUGGCAAAGUGGCUGUGGCUAGACUGCCUCUCUGGAUUCCUCGUCACUCAGCCGGGCAUCUCUGAGAGAAAUGCC [U20A U47C A124C]: 1.39; for UACGUAGGUGGUUUUCCCCUGAUAGCGCUAAGGGGGCCUGGAAGUAUGGACUGGGCAGAGCUCAACACAGCGUGGCAAAGUGGCUGUGGCUAGACUGCCUCUCUGGAUUCCUCGUCACUCAGCAGGGCAACUCUGAGAGAAAUGCC [U26C U46A U130A]: 1.24. The same measure for UACGUAGGUGGUUUUCCCCUGAUAGUGCUAAGGGGGCCUGGAUGUUUGGACUGGGCAGAGCCCAACACAGCGUGGCAAAGCGGCAGUGGCUAGACUGCCUCUCUGGAUUCCUCGUCACUCAGCAGGGCAUCUCUGAGAGAAAUGCC [A43U U62C U81C U85A]: 0.09; for UACGUAGGUGGUUUUCCCCCGAUAGAGCUGAGGGGGCCUGGGAGUUUGGUCUGGGCAGGGCUCAACACAGCGUGGCAAAGUGGCUGUGGCUAGACUGCCUCUCUGGAUUCCUCGUCACUCAGCAGGGCAUCUCUGAGAGAAAUGCC [U20C U26A A30G A42G A50U A59G]: 0.82.

Regarding UACGUAGGUGGCUUUCCCCUGAUAGUGCUAAGGGGGCCUGGAGGUUUGGACUGGGCAGAGCUCAACACAGCGUGGCAAAGUGGCUGUGGCUAGACUGCCUCUCUGGAUUCCUCGACACUCAGCAGGGCAUCUCUGAGAGAAAUGCC [U12C A43G U115A], the self-cleavage came to 1.34. With UACGUAGGUGGUUUCCCCCUGAUAGUGCUAAGGGGGCCUGGAAGUUUGGGCUGGGCAGAGCCCAACACAGCGUGGCAAAGUGGCUGUGGCUAGACUGCCUCUCUGGAUUCCUCGUCACUCAGCAGGGCAUCUCUGAGAGAAAUGCC [U15C A50G U62C], the self-cleavage came to 0.06.

Take UACGUAGGUGGUUUUCCCCUGAUAGUGCUAAGGGGGCCUGGAAGUUUGGACUGGGCAGAGCCCAACACAGCGUGGCAAAGUGGCUGUGGCUAGACUGCCUCUCUGGAUUCCUCGUCACUCAGCAGGGCAUCUCUGAGGGUAAUGCC [U62C A138G A140U]: the self-cleavage was 0.05.
